Source: paper PMC4336329 (PLoS ONE, 2015)
The whole screen tested about 310,000 compounds, of which about 2,200 (0.71%) showed an effect of 50% or more. The effect is printed as a negative number. This is one part of the list.

Molecular target: human ether-à-go-go-related gene (hERG) potassium channel (human, UniProt Q12809)
Test: primary screen, population patch clamp on CHO cells stably expressing hERG

human ether-à-go-go-related gene (hERG) potassium channel, sequence (Q12809 whole entry, looked up): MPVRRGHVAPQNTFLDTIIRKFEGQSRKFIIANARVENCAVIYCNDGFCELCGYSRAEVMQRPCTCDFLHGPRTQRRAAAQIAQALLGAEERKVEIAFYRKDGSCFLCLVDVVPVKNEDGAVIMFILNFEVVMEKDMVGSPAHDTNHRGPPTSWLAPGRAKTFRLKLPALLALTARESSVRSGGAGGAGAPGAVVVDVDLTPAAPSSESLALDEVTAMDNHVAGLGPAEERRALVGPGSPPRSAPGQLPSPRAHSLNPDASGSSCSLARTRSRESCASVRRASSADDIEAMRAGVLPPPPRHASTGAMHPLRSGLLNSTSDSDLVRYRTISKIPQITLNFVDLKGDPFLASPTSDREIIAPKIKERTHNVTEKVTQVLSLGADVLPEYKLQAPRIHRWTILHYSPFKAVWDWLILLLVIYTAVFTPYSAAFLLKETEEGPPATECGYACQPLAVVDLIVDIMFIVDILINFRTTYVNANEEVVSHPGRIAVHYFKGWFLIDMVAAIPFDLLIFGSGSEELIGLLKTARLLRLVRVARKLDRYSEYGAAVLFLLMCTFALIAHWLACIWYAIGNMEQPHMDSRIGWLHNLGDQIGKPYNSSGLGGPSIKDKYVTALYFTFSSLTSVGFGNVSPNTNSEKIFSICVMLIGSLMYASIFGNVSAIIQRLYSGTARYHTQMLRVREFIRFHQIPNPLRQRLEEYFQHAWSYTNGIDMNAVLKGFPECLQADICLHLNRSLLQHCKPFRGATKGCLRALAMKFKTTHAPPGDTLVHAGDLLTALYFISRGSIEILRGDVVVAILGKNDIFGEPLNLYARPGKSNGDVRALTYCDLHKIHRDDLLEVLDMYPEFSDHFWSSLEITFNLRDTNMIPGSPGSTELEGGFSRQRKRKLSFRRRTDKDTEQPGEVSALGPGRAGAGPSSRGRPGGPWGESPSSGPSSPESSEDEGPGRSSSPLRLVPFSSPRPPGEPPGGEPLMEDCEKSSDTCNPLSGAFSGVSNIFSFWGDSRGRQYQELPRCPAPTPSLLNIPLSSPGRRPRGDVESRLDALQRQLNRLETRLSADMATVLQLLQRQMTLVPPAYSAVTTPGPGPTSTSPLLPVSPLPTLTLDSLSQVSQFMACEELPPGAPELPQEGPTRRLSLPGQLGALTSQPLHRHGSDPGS

SMILES	hERG current change (%, negative = inhibition) at 1uM [%]
CCOC(=O)CNC(=O)CSc1nc(Cc2ccccc2)nc2ccccc12	3.02
CCOC(=O)c1ccc(NS(=O)(=O)CC)cc1	18.7
Cc1ccc(CCNC(=O)C2CC(c3ccccc3[N+](=O)[O-])=NO2)cc1 (centres unmarked)	14.4
Cl.O=c1c(-c2ccccc2)coc2c(CN3CCCCC3)c(O)ccc12	14.4
CC1CCN(c2nc3c(c(=O)n(C)c(=O)n3C)n2Cc2ccccc2)CC1	3.95
CCc1cc(C(=O)Nc2ccc(S(=O)(=O)NC3=NCCCCC3)cc2)sc1C	-3.62
Nc1nc(SCc2ccc([N+](=O)[O-])cc2)c2ncn(C3OC(CO)C(O)C3O)c2n1 (centres unmarked)	7.76
Cc1c(Cl)cnc(NC(=O)COC(=O)c2ccncc2)c1Cl	12.5
O=C(Cn1cnc2ccccc21)N/N=C/c1ccc([N+](=O)[O-])cc1	10.9
O=C(CCN1CCC(c2cccs2)=N1)c1cccs1	8.07
CCOC(=O)C1=C(C)NC(=S)N(C(C)=O)C1c1ccc(Cl)cc1 (centres unmarked)	9.38
COc1ccc(S(=O)(=O)N2CCC(O)(c3cccnc3)CC2)cc1OC	7.1
O=C(Nc1cccc(O)c1)c1ccccc1[N+](=O)[O-]	5.34
COc1ccccc1C(=O)NC(=S)Nc1ccc(N2CCOCC2)c(Cl)c1	11.3
O=C(Nc1ccc(F)c(Cl)c1)c1ccc2c(c1)OCO2	13.1
O=C(Nc1ccccc1C(F)(F)F)C1CCN(C(=O)c2cccs2)CC1	12.5
Cc1cccc(N(CC(N)=O)C2SC(=O)N(c3ccccc3)C2=O)c1 (centres unmarked)	14.6
CCNC(=O)C(=O)N/N=C/c1cc([N+](=O)[O-])ccc1O	2.06
COc1cccc(CC2(CO)CCCN(Cc3sc(N4CCCC4)nc3Cl)C2)c1 (centres unmarked)	1.49
Cc1ccc2sc(C)[n+](CCC(C)S(=O)(=O)[O-])c2c1 (centres unmarked)	4.78
COc1ccc(NC(=O)Nc2nnc(-c3cccs3)s2)cc1	5.07
O=C(Nc1ccc(COc2ccccc2)cc1)Oc1ccccc1N1CCOCC1	15.5
CCN1C(c2ccccc2)C(C)C(=O)C(C)C1c1ccccc1 (centres unmarked)	6.74

SMILES	hERG current change (%, negative = inhibition) at 1uM [%]
CCC(C(=O)Nc1ccc2c(c1)OCCO2)n1nnc2ccccc2c1=O (centres unmarked)	12.9
Cn1c(CNC(=O)CNC(=O)c2ccccc2)cc(=O)n(C)c1=O	8.3
CN1C(=O)C(=Cc2ccc(-c3cccc(Cl)c3)o2)C(=O)N(C)C1=O	4.47
COc1ccc(C(=O)OC(C)C(=O)NC2CCCc3ccccc32)cc1OC (centres unmarked)	9.5
Cc1cccc(NC(=O)NCc2cccnc2)c1C	-15.7
CC(C)C(C(=O)NC1CCCCC1)N(CC1CCCO1)C(=O)CNS(=O)(=O)c1ccc(F)cc1 (centres unmarked)	0.505
Cc1ccccc1N1C(=O)CN(Cc2sccc2C)C1=S	7.66
CCOC(=O)c1cnc(-c2ccc(C(F)(F)F)cn2)[nH]c1=O	11.5
COc1ccc(N(C(=O)c2ccccc2OC)C2C=CS(=O)(=O)C2)c(OC)c1 (centres unmarked)	14.4
O=c1[nH]cnc(O)c1C(c1ccc(F)cc1)c1c(O)nc[nH]c1=O	17.9
O=C1CN(C(=O)COc2ccc(F)cc2Br)c2ccccc2N1	2.8
COc1ccc(-c2sc3ccc(OC)cc3c2C#CCCO)cc1	12.8
CN(C)S(=O)(=O)N1CCN(S(=O)(=O)c2ccc3ccccc3c2)CC1	21
CC(C)c1ccc(NC2CCCN(C(=O)c3ccncc3)C2)cc1 (centres unmarked)	10.7
Cc1cccc(C(=O)OCC(=O)Nc2c(C)n(C)n(-c3ccccc3)c2=O)c1	4.09
CCc1nc2ccc(C(=O)N3CCN(c4cccc(C(F)(F)F)c4)CC3)cc2nc1CC	-16.7
O=C1C(C=NCCCN2CCOCC2)=C(O)c2ccccc21	11
COc1ccc(C(=O)NCC(O)COc2ccc(C(C)(C)C)cc2)cc1[N+](=O)[O-] (centres unmarked)	10.8
Cc1c(C(=O)Oc2cc(N)n(S(C)(=O)=O)n2)cccc1[N+](=O)[O-]	7.66
CCc1cc2ccc(OC)cc2nc1SCC(=O)NNC(C)=O	-1.32
CCCCCCc1cc2cc(-c3nnc(-c4ccccc4OC)o3)c(=O)oc2cc1O	2.36
COc1cc(/C=C/c2ccc3cccc(O)c3n2)cc(Br)c1OC	15.1
COc1ccccc1N1CC(C(=O)Nc2nc(C)cs2)CC1=O (centres unmarked)	-3.75

SMILES	hERG current change (%, negative = inhibition) at 1uM [%]
COc1ccc(N2CCN(CCCNC(=O)Nc3ccccc3)CC2)cc1	-50.5
CN(CC(=O)Nc1ccccc1Br)C(=O)c1cccnc1Nc1cccc(C(F)(F)F)c1	10.2
O=C(CSc1nnc2c(n1)[nH]c1ccc(F)cc12)NCc1ccc(F)cc1	7.43
CC(=O)Nc1ccc(NC(=O)Cn2c(=O)n(-c3ccc(F)cc3)c(=O)c3oc4ccccc4c32)cc1	12.4
O=C(NNC1=C(C(=O)C(F)(F)F)CCC1)c1cccc(Cl)c1	13.4
C=CCN1C(=NC(=O)CCCC(=O)O)SC2CS(=O)(=O)CC21 (centres unmarked)	10.8
CCCN1CCC(NC(=O)Cc2ccccc2OC)CC1	7.16
CSc1nc(C(C)C)ccc1CNC(=O)CC(C)c1ccccc1 (centres unmarked)	10.9
CCCCn1nc(C(=O)Nc2c(C)n(C)n(-c3ccccc3)c2=O)c2ccccc2c1=O	7.57
CC1=CC(C)(C)Nc2ccc(Cc3ccc4c(c3)C(C)=CC(C)(C)N4)cc21	14.3
O=C(Cn1c(=O)c2c(ncn2Cc2ccccc2)n(Cc2ccccc2)c1=O)NC1CC1	11.1
O=C(CN1CCN(c2ccc(Cl)cc2)CC1)NCc1ccccc1	-23.6
Cc1ccc(C)c(SCC(=O)Nc2cccnc2Cl)c1	3.02
COc1cc(/C=C/C(O)=C/C(=O)/C=C/c2ccc(O)cc2)ccc1O	14.5
O=C(CSc1nnc(SCc2ccccc2)s1)N/N=C/C=C\c1ccco1	15.9
O=C(CSc1nc2ccccc2s1)Nc1cc(S(=O)(=O)N2CCOCC2)ccc1Cl	7.53
Cc1ccc(C(=O)NCC(=O)NC2CCCC2)cc1	12.6
Cc1cccc(C(=O)NCCC(=O)NCc2ccccc2F)c1	5.88
O=C(Cn1c(=O)n(CCC(=O)N2CCCCC2)c(=O)c2sccc21)NCc1ccccc1	11.6
CCOc1ccc(CCNC(=O)CS(=O)Cc2nc(-c3ccccc3C)oc2C)cc1OCC (centres unmarked)	16.3
CCOc1cccc(-c2csc(C3COc4ccccc4O3)n2)c1.Cl (centres unmarked)	16.4
N#CCN1CCC/C1=C\[N+](=O)[O-]	22.1
Cn1c(NC(=O)c2ccccc2)nc2ccccc21	14.4

SMILES	hERG current change (%, negative = inhibition) at 1uM [%]
CCC(C)NC(=O)CSc1n[nH]c(-c2cc(Cl)ccc2OC)n1 (centres unmarked)	2.44
O=C(CN1C(=O)NC2(CCCC2)C1=O)Nc1cc(Cl)ccc1N1CCCCC1	8.98
Cc1cc(NC(=S)N(CCN2CCOCC2)Cc2ccccc2F)ccc1Cl	6.39
CCCC(C)NC(=O)Cc1ccc(Br)cc1 (centres unmarked)	13.6
Cc1ccc(C)c(-c2nnc(NC(=O)CCS(=O)(=O)c3ccccc3)o2)c1	-13.5
COCCn1c(SCC(=O)NC2CCCC2)nnc1-c1ccco1	15.1
Cc1ccoc1C(=O)Nc1ccc2ccccc2c1	12.5
O=C1/C(=C/c2cccnc2)N=C2CCCCCN12	2.46
CS(=O)(=O)c1ccc(Cl)c(NC(=O)COC(=O)CNC(=O)c2ccc(Br)o2)c1	8.67
S=C1NCCNC(=S)NCCOCCOCCN1	12.3
Cc1ccc(NC(=O)CNC(=O)c2cccs2)cc1S(=O)(=O)Nc1ccc(Cl)cc1	7.67
Cc1ccc(-n2ncc3c(N4CCC(C(N)=O)CC4)ncnc32)c(C)c1	-10.4
Cl.Clc1ccc(SCCOCCN2CCc3ccccc3C2)cc1	8.68
O=[N+]([O-])c1ccc(-[n+]2nc(-c3ccccc3)nn2-c2ccccc2)cc1.[Br-]	16.9
O=C(NN1C(=O)CSC1=S)C(=O)NN1C(=O)CSC1=S	21.5
OC1(c2ccccn2)COc2ccccc2O1 (centres unmarked)	0.694
COc1ccc(CCN2CC(C(=O)NCCc3ccccc3C)CCC2=O)cc1 (centres unmarked)	5.05
CC1=CC(C)(C)N2C(=O)C3(N=C(N)NC(Nc4ccccc4)=N3)c3cc(C)cc1c32 (centres unmarked)	1.44
Br.Cc1cc(NS(=O)(=O)c2ccc(Nc3nc(-c4sc(NC(=O)c5ccccc5)nc4C)cs3)cc2)no1	-0.702
COc1ccccc1NS(=O)(=O)c1cccc(C(=O)NNC(=O)C(NC(N)=O)C(C)C)c1 (centres unmarked)	10.2
